# Measured values: the supplement of paper PMC3334620
# Whole data set: some 33,000 sequences, median “E-score (-0.5 to 0.5)” near -0.04, cut for the highest 2% near 0.36. Some of the results follow.
# Molecular target: T1, Hmlalpha2 (UniProt P0CY09)
# T1 sequence: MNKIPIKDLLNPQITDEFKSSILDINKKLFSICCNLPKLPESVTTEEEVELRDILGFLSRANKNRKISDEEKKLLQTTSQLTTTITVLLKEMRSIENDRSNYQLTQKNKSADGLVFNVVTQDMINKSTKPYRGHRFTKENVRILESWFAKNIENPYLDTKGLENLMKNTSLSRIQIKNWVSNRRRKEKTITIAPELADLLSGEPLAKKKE
# Experiment: PBM E-score (8-mer binding enrichment) (E-score (-0.5 to 0.5)); higher = stronger / more preferred TF binding; most listed sequences are background and not binding sites
# Settings: protein concentration: 200 nM; construct: GST-full length
# Outline: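 Full-length yeast transcription factors or their DNA-binding domains, GST-tagged and expressed with PURExpress, were applied at about 100-200 nM to universal all-10-mer Agilent arrays. These arrays had been made double-stranded by primer extension on fresh or once-stripped slides. Detection used fluorescent anti-GST, normalisation used masliner, and E-scores for ungapped eight-base words pooled with reverse complements came from the Universal PBM Analysis Suite.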
row,Sequence,PBM E-score
1,CTTGATGC,-0.07
2,AGGTGCCA,-0.19
3,CTTTCTCA,0.17
4,GAAAAAAC,0.0722
5,ATAATGAT,0.116
6,GCGGTAGC,-0.135
7,ATACGGTA,0.00709
8,ATACCACA,0.12
9,CACCTGGC,-0.165
10,GAGTAGGC,-0.278
11,CTTCGTTC,-0.212
12,CGTGTTCC,0.2
13,CGAGACCC,-0.0926
14,GCGTCTCC,-0.033
15,GAGACGAA,-0.115
16,ATGTGATC,0.228
17,CGTATAAA,0.335
18,GCCTATCA,-0.095
19,ATATAGGA,0.0657
20,ATCACTTG,-0.038
21,GCGGGGGA,-0.234
22,GGTCGCAA,-0.0889
23,CCATCACC,-0.147
24,ACCGTGTC,0.264

row,Sequence,PBM E-score
1,CCAAGGCA,-0.207
2,GACCCAAC,-0.188
3,ACACTTCC,-0.111
4,AATGTCGC,0.0679
5,CTCCGGCA,-0.175
6,GGGTCGAC,-0.136
7,CAGCGTAC,-0.128
8,CTCCTTTC,-0.28
9,AAGCTTTA,0.154
10,ACTGTAGA,0.0789
11,CGGGGTAC,-0.19
12,CAGGTCGC,-0.17
13,ATTTCTCA,0.0292
14,TCAAATAA,0.0782
15,AGGGTATA,0.0259
16,ATGGGTTC,-0.196
17,GACAGATC,0.0561
18,ACAAAACC,0.234
19,AACTCCCT,-0.0726
20,CATTTATC,0.0223
21,ACCTCGGG,-0.136
22,GAGGGTAA,-0.149
23,ACGATTCT,0.0326
24,GTTTTATA,0.144

row,Sequence,PBM E-score
1,ACTCAATG,0.174
2,ACTCCGAG,-0.0518
3,CTGCTCTC,-0.0476
4,GCATCTAC,0.141
5,GACGACCC,-0.145
6,CGCCGTAC,0.127
7,CAGCTTTC,-0.103
8,GCGGGGCA,-0.187
9,AACAGAAG,-0.131
10,GACTCAGC,-0.124
11,ACTCAGTA,0.0821
12,CAACGCCG,0.0576
13,CCACAAGC,-0.211
14,AAGGCACC,-0.0779
15,CTACTCAA,0.216
16,ACGTGTCA,0.392
17,TAAGGCCA,0.0046
18,GCGGTGAC,-0.157
19,GCGATTGA,-0.0743
20,CTACGCGC,0.302
21,CGAGCAAG,-0.145
22,ACAGTTCT,-0.0804
23,TCTGCGAA,-0.00695
24,ACACGTTG,0.35

row,Sequence,PBM E-score
1,ATGCCCCG,-0.315
2,AGAAACGA,0.00868
3,ACATCCCC,0.0184
4,CCCCCAAA,-0.126
5,TACCGCAA,0.101
6,CCTCTGAG,-0.305
7,ACGGTGAG,-0.129
8,CATCCTGA,0.0602
9,CCATGGTA,0.00138
10,GAGATCGC,-0.0829
11,GGCATAAA,-0.0898
12,CCCAGTAG,-0.0854
13,AAAGACAG,0.0979
14,GTAGGAGA,-0.184
15,AGAGGGCG,-0.0779
16,ACAGTGAA,0.17
17,GACCTGAC,-0.203
18,AGCCCCTA,-0.386
19,GAGGCCCA,-0.295
20,AATGTACC,0.166
21,TGAACTAA,0.0175
22,AAGTTATC,0.114
